In the supplement of paper PMC12217912:
The other results are listed elsewhere or left out. The full chains were built here from the parent and the listed change. Values near 0.05 are background.

B1: TEV protease; numbered along this chain (parent)
chain: MGESLFKGPRDYNPISSSICHLTNESDGHTTSLYGIGFGPFIITNKHLFRRNNGTLVVQSLHGVFKVKDTTTLQQHLVDGRDMIIIRMPKDFPPFPQKLKFREPQREERICLVTTNFQTKSMSSMVSDTSCTFPSGDGIFWKHWIQTKDGQCGSPLVSTRDGFIVGIHSASNFTNTNNYFTSVPKNFMELLTNQEAQQWVSGWRLNADSVLWGGHKVFMVKPEEPFQPVKEATQL

Variants of: B1
Test: raw area under fraction-flipped curve 0-4 h after induction (AUC4h, not background-subtracted), DNA-recorder readout of cleavage of the substrate (dimensionless); higher = more cleavage of the substrate by the protease variant
Settings: temperature: 34 °C; time window: 0-4 h after rhamnose induction
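Also: Bxb1 expression induced with 0.2% (w/v) L-rhamnose at OD600 near 0.5, cultures sampled hourly, flipped fraction per protease–substrate barcode pair counted by paired-end Illumina sequencing.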

| Variant | area with substrate ENLYFFS | area with substrate ENLYFIS | area with substrate ENLYFRS | area with substrate ENLYFTS | area with substrate ENLYFYS | area with substrate ENLYFKS | area with substrate ENLYFLS | area with substrate ENLYFGS | area with substrate ENLYFNS | area with substrate ENLYFPS |
| --- | --- | --- | --- | --- | --- | --- | --- | --- | --- | --- |
| A207H | 0.043 | 0.0632 | 0.0777 | 0.06 | 0.0519 | – | – | – | – | – |
| R160L | – | – | – | – | 0.0562 | 0.0512 | 0.0693 | – | – | – |
| L99G | 0.0569 | – | – | – | – | 0.0658 | – | 0.0699 | 0.0569 | 0.0715 |
| K148V | 0.0692 | 0.0837 | – | – | 0.0516 | 0.0681 | – | – | 0.0567 | 0.0615 |
| F140T | 0.0717 | 0.0691 | – | 0.0632 | 0.0644 | – | – | 0.0475 | – | 0.0597 |
| G2C | 0.048 | 0.065 | – | – | – | – | – | – | – | – |
| P222K | 0.0707 | 0.0561 | 0.0609 | – | 0.0539 | 0.0648 | 0.0468 | 0.0704 | 0.0457 | 0.0504 |
| N175I | – | 0.0505 | – | 0.0694 | 0.0576 | 0.0698 | 0.061 | – | – | – |
| N193L | – | 0.0526 | 0.0568 | 0.0387 | 0.0638 | 0.0378 | 0.0697 | 0.0382 | – | – |
| N206Y | 0.0812 | 0.051 | 0.0651 | 0.0747 | – | – | 0.0632 | – | – | 0.0739 |
| L73D | – | 0.055 | 0.0318 | 0.0617 | 0.066 | 0.0582 | – | 0.0442 | 0.0562 | 0.0495 |
| W141E | 0.0618 | 0.0542 | 0.0596 | – | – | 0.0625 | 0.0502 | – | – | – |
| E3T | – | – | 0.0633 | 0.0444 | – | 0.0306 | – | – | – | – |
| S154T | – | – | – | 0.0534 | 0.053 | 0.0738 | – | – | – | 0.0607 |
| W203I | – | 0.0503 | 0.0582 | 0.0544 | 0.0616 | – | 0.0578 | 0.0483 | – | 0.0662 |
| N178E | 0.0685 | 0.0516 | – | – | 0.0651 | – | – | 0.0778 | – | – |
| T147K | 0.0609 | 0.0565 | 0.0876 | 0.0631 | – | – | – | – | 0.072 | 0.06 |
| F95C | 0.056 | 0.0558 | – | – | – | – | – | 0.0521 | – | – |
| T159N | – | 0.0582 | 0.0565 | 0.0647 | – | – | 0.0573 | – | – | 0.0749 |

| Variant | area with substrate ENLYFFS | area with substrate ENLYFIS | area with substrate ENLYFRS | area with substrate ENLYFTS | area with substrate ENLYFYS | area with substrate ENLYFKS | area with substrate ENLYFLS | area with substrate ENLYFGS | area with substrate ENLYFNS | area with substrate ENLYFPS |
| --- | --- | --- | --- | --- | --- | --- | --- | --- | --- | --- |
| Q197T | 0.0678 | 0.0649 | – | 0.0768 | – | – | – | 0.0478 | – | 0.0589 |
| S171Q | 0.0745 | 0.0494 | – | – | – | – | – | – | – | – |
| L5A | 0.0895 | 0.0278 | – | – | – | – | – | – | 0.0595 | – |
| L5C | 0.0644 | 0.0585 | 0.0483 | – | – | – | 0.0464 | – | – | 0.0526 |
| L211W | 0.0709 | – | 0.0304 | 0.0461 | – | 0.077 | – | – | 0.0499 | – |
| V217I | 0.0723 | 0.0532 | 0.0551 | 0.0593 | – | – | 0.0766 | – | 0.0645 | – |
| V217Y | 0.0788 | 0.0558 | 0.0659 | 0.0519 | – | 0.0837 | – | 0.0684 | – | 0.0554 |
| M125I | – | – | 0.0562 | 0.0717 | – | – | – | – | 0.0597 | 0.0575 |
| L205I | 0.0497 | 0.0609 | 0.0508 | 0.0575 | 0.0702 | – | – | – | 0.0315 | – |
| D91R | – | 0.0496 | 0.024 | 0.0544 | – | – | – | – | – | 0.0566 |
| Q59P | – | 0.0312 | – | 0.037 | 0.0379 | – | 0.0315 | – | – | 0.035 |
| Q59L | 0.0734 | 0.0463 | – | – | – | 0.043 | – | – | 0.0545 | 0.0488 |
| H143F | – | 0.0594 | 0.0605 | 0.0664 | – | – | – | – | – | 0.0642 |
| D208P | 0.0679 | 0.0564 | 0.0584 | 0.0593 | 0.0491 | – | 0.0573 | 0.0575 | 0.0647 | – |
| I145L | 0.0412 | 0.0474 | – | – | 0.065 | 0.0293 | – | – | – | 0.0596 |
| K185H | – | 0.101 | – | 0.065 | 0.0625 | – | 0.0431 | – | 0.0514 | – |
| L191S | – | 0.0596 | – | 0.0592 | 0.0181 | – | – | – | 0.0528 | – |
| G8Y | – | – | – | – | 0.0193 | – | – | – | – | – |
| I43Y | 0.0512 | 0.0507 | – | – | – | 0.0398 | – | – | – | 0.061 |

Same assay, conditions: temperature: 34 °C; time window: 0-4 h after rhamnose induction

| Variant | area with substrate ENLYFSS | area with substrate ENLYFVS | area with substrate ENLYFES | area with substrate ENLYFHS | area with substrate ENLYFMS | area with substrate ENLYFWS |
| --- | --- | --- | --- | --- | --- | --- |
| L99G | 0.0488 | 0.0521 | – | – | – | – |
| K148V | – | 0.0425 | 0.0716 | 0.0834 | 0.0787 | 0.0484 |
| F140T | – | – | – | – | 0.0489 | 0.0579 |
| G2C | – | 0.053 | – | – | – | – |
| P222K | 0.0608 | 0.0581 | 0.0591 | 0.0554 | 0.0571 | – |
| N175I | 0.0554 | 0.0803 | – | – | 0.0648 | – |
| N193L | – | 0.0509 | – | – | 0.0703 | 0.0488 |
| N206Y | – | – | – | – | 0.0406 | – |
| L73D | – | – | – | – | 0.0531 | 0.0468 |
| W141E | 0.0562 | – | 0.0462 | – | 0.0564 | – |
| S154T | 0.0567 | – | – | 0.0488 | 0.071 | 0.0659 |
| W203I | – | – | 0.0521 | 0.0573 | – | – |
| N178E | 0.0475 | – | 0.0458 | 0.0618 | 0.0789 | – |
| T147K | – | – | 0.0497 | – | – | – |
| F95C | – | 0.0623 | – | 0.0629 | – | – |
| T159N | – | – | – | – | 0.0767 | 0.0541 |
| Q197T | – | – | 0.0422 | – | 0.0598 | – |
| S171Q | – | – | 0.0649 | – | 0.0698 | 0.0626 |

| Variant | area with substrate ENLYFSS | area with substrate ENLYFVS | area with substrate ENLYFES | area with substrate ENLYFHS | area with substrate ENLYFMS | area with substrate ENLYFWS |
| --- | --- | --- | --- | --- | --- | --- |
| L5A | – | – | – | 0.07 | – | 0.0953 |
| L5C | – | – | – | 0.054 | 0.0934 | – |
| L211W | – | 0.0222 | 0.0693 | 0.0657 | 0.0556 | 0.0542 |
| V217I | 0.0536 | – | 0.0675 | 0.0705 | – | – |
| V217Y | 0.0694 | 0.0622 | 0.0618 | – | 0.0663 | 0.0832 |
| M125I | – | – | – | 0.0559 | – | 0.0567 |
| L205I | – | 0.0544 | 0.0609 | – | – | 0.0783 |
| D91R | – | – | – | – | 0.0737 | 0.0593 |
| Q59P | – | 0.0404 | – | 0.0494 | 0.0449 | 0.0364 |
| Q59L | – | 0.0641 | – | 0.0507 | 0.0831 | 0.0639 |
| H143F | 0.0648 | – | 0.0631 | 0.048 | 0.0478 | – |
| D208P | – | – | – | 0.0678 | 0.0517 | 0.0461 |
| I145L | – | 0.0515 | – | – | 0.0579 | 0.0687 |
| K185H | – | 0.041 | – | – | 0.0739 | 0.0846 |
| L191S | – | 0.0555 | 0.0642 | – | 0.0353 | 0.0371 |
| G8Y | – | 0.0715 | – | – | – | – |
| I43Y | – | – | – | – | 0.0492 | 0.0048 |
